{"source": "PubChem BioAssay AID504374", "about": "(National Center for Advancing Translational Sciences (NCATS), 2011)", "note": "Screen size: about 1,500 compounds; about 100 (6.7%) were called active. Not shown: some 7% with an inconclusive outcome. The call rests on the fitted dose curve; in most records, active means well fitted inhibition curve with a large enough effect; inconclusive means small, poorly fitted or top-dose-only effect, or effect the other way; inactive means flat fitted curve, though single readings scatter. This is one part of the list. On the % scale 0 is the no-effect control and ±100 the full control effect; potency means the concentration at half of the fitted maximal effect.", "data": [{"biological_target": "Runt-related transcription factor 1 (Homo sapiens) + Core-binding factor subunit beta (Homo sapiens) (UniProt Q01196+Q13951)", "sequence (Q01196 whole entry, looked up)": "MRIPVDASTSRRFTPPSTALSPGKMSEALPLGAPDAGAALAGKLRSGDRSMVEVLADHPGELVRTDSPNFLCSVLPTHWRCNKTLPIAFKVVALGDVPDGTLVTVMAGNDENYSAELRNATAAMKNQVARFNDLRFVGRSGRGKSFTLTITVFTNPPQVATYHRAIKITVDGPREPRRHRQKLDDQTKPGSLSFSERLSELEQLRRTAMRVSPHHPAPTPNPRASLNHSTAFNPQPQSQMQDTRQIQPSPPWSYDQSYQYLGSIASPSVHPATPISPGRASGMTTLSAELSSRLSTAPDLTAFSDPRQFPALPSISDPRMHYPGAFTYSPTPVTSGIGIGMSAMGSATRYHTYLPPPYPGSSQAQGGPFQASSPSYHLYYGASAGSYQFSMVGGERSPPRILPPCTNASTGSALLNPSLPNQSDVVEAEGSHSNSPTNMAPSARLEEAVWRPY", "sequence (Q13951 whole entry, looked up)": "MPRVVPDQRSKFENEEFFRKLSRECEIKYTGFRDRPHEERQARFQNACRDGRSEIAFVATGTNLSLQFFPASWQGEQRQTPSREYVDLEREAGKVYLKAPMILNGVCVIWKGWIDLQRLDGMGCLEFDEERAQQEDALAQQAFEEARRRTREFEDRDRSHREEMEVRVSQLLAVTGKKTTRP", "test": "qHTS Assay for Compounds Blocking the Interaction Between CBF-beta and RUNX1 for the Treatment of Acute Myeloid Leukemia: Hit Validation; further: nearly all actives have a fitted effect of over 60% in size", "conditions": "AlphaScreen CBFb-His/RUNX1-biotin binding; series mostly up to 59.8 µM; activity, negative = inhibition: at the top concentration", "in_short": "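AlphaScreen proximity assay: His-tagged CBF-beta and biotinylated RUNX1 (30 nM each) preincubated 20 min, then compound 15 min, then nickel and streptavidin beads 90 min, all at room temperature; signal read at […]em 440 nm.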", "values": [{"smiles": "Cc1ccc(S(=O)(=O)Nc2cc(-c3ccccc3)nn2C)cc1Cl", "activity, negative = inhibition": "inactive: -23.6%"}, {"smiles": "COC(=O)c1ccc(S(=O)(=O)NC(C)(C)C)n1C", "activity, negative = inhibition": "inactive: 11.4%"}, {"smiles": "CN(C)c1cc(-c2ccc(C#N)cc2)oc(=O)c1Cl", "activity, negative = inhibition": "inactive: -2.74%"}, {"smiles": "Nn1c(SCc2cccc(F)c2)nnc1-c1cccnc1", "activity, negative = inhibition": "inactive: -12%"}, {"smiles": "COc1ccc(C(=O)/C=C/Nc2cc(C)ccn2)cc1", "activity, negative = inhibition": "inactive: -3.04%"}, {"smiles": "COCCn1c(-c2ccc(Cl)cc2)nc2oc3cc(OC)ccc3c(=O)c2c1=O", "activity, negative = inhibition": "inactive: -1.81%"}, {"smiles": "O=C(CNCc1ccco1)Nc1cccc(S(=O)(=O)N2CCCCC2)c1", "activity, negative = inhibition": "inactive: -6.89%"}, {"smiles": "C/C(=N\\NC(=O)c1cc(-c2cccc([N+](=O)[O-])c2)n[nH]1)c1ccc(F)cc1", "activity, negative = inhibition": "inactive: -6.24%"}, {"smiles": "O=C(c1ccc(Cn2ccc([N+](=O)[O-])n2)cc1)N1CCN(Cc2ccccc2)CC1", "activity, negative = inhibition": "inactive: 1.19%"}, {"smiles": "N#Cc1cc(-c2ccccc2)[nH]c1-c1nccc2ccccc12", "activity, negative = inhibition": "inactive: 3.89%"}, {"smiles": "Cc1cc(OCC(=O)c2ccc(C(F)(F)F)cc2)n2cnnc2n1", "activity, negative = inhibition": "inactive: -0.263%"}, {"smiles": "CCn1c(O)c(C=NCc2ccccc2)sc1=S", "activity, negative = inhibition": "inactive: -18.1%"}, {"smiles": "CC(C)CC(=O)NC(=S)Nc1ccc(N2CCCC2)c(Cl)c1", "activity, negative = inhibition": "inactive: -8.35%"}, {"smiles": "Cc1ccccc1CSc1nnc([C@@H]2CCCN2)o1", "activity, negative = inhibition": "inactive: -3.62%"}, {"smiles": "COc1ccc([N+](=O)[O-])cc1NC(=O)N(C)Cc1ccco1", "activity, negative = inhibition": "inactive: -1.51%"}, {"smiles": "O=C(N/N=C/c1ccc2nccnc2c1)c1ccncc1", "activity, negative = inhibition": "inactive: -7.59%"}, {"smiles": "CC(=O)Nc1nc(C)c(-c2csc(Nc3ccc(S(N)(=O)=O)cc3)n2)s1", "activity, negative = inhibition": "inactive: -0.545%"}, {"smiles": "O=C(O)c1ccc(COc2ccc3c(c2)CCC3)cc1", "activity, negative = inhibition": "inactive: -0.771%"}, {"smiles": "CCOC(=O)c1cn2nc(Oc3ccc(C(=O)OC)cc3)ccc2n1", "activity, negative = inhibition": "inactive: 6.89%"}, {"smiles": "C=CCN=C1S/C(=C\\c2ccc(N(C)C)cc2)C(=O)N1CC=C", "activity, negative = inhibition": "inactive: -1.48%"}, {"smiles": "CCCCC12CN3CC(C)(CN(C1)C3c1ccc([N+](=O)[O-])o1)C2=O", "note": "(configuration not stated)", "activity, negative = inhibition": "inactive: -12.1%"}, {"smiles": "Cc1cc(C)nc(S/C=C/C(=O)c2ccc(F)cc2)n1", "activity, negative = inhibition": "inactive: -7.34%"}, {"smiles": "CC(=O)c1cnn(-c2c(Cl)cc(Cl)cc2Cl)c1C", "activity, negative = inhibition": "inactive: 3.69%"}, {"smiles": "COc1ccc(-n2c(SCC(=O)Nc3cccc4ccccc34)nc(O)cc2=O)cc1", "activity, negative = inhibition": "inactive: -6.1%"}, {"smiles": "C#CCCOC(=O)Nc1ccccc1", "activity, negative = inhibition": "inactive: -18.8%"}, {"smiles": "CCCCC1C2C(=O)N(c3ccc(C)cc3)C(=O)C2ON1c1ccccc1", "note": "(configuration not stated)", "activity, negative = inhibition": "inactive: -2.92%"}, {"smiles": "Cc1nc(C)c(-c2ccn(C(=O)NC(C)C)n2)s1", "activity, negative = inhibition": "inactive: 0.607%"}, {"smiles": "C=CN1CCCC1=O", "activity, negative = inhibition": "inactive: -5.62%"}, {"smiles": "COc1cccc(/C=N/NC(=O)CCn2cnc3ccccc32)c1", "activity, negative = inhibition": "inactive: -10.5%"}, {"smiles": "COc1ccc(NC(=O)c2cccs2)cn1", "activity, negative = inhibition": "inactive: 4.88%"}, {"smiles": "CCCCNC(=O)NCCN1CCOCC1", "activity, negative = inhibition": "inactive: 0.241%"}, {"smiles": "CSc1cccc(NC(=O)C(=O)NCc2ccccc2)c1", "activity, negative = inhibition": "inactive: -2.4%"}, {"smiles": "Cc1csc2ncnc(N3CCN(C(=S)Nc4ccc(F)cc4F)CC3)c12", "activity, negative = inhibition": "inactive: -2.92%"}, {"smiles": "CCCCSc1cc(C)nc(N)n1", "activity, negative = inhibition": "inactive: -2.39%"}, {"smiles": "COc1ccc(NC(=O)c2cc(S(=O)(=O)N3CCCC3)oc2C)cc1", "activity, negative = inhibition": "inactive: 3.96%"}, {"smiles": "CCNc1nc(N)c(C(=O)C23CC4CC(CC(C4)C2)C3)s1", "activity, negative = inhibition": "inactive: -4.49%"}, {"smiles": "CCOc1ccc(Nc2c3ccccc3nc3ccccc23)cc1", "activity, negative = inhibition": "inactive: -13%"}, {"smiles": "Clc1ccc(Nc2ncnc3c2nnn3Cc2ccccc2)cc1", "activity, negative = inhibition": "inactive: -3.84%"}, {"smiles": "CC(C)(C)SCCNS(=O)(=O)c1ccc(C#N)cc1", "activity, negative = inhibition": "inactive: -9.27%"}, {"smiles": "O=C(CSc1nc2cc(Cl)c(Cl)cc2[nH]1)c1ccc2c(c1)OCO2", "activity, negative = inhibition": "inactive: 3.05%"}, {"smiles": "OC[C@H](O)[C@H](O)[C@@H](O)[C@@H](O)[C@@H]1SC(c2ccccc2)=NN1c1ccccc1", "activity, negative = inhibition": "inactive: -6.14%"}, {"smiles": "O=[N+]([O-])c1cccnc1Oc1cccnc1", "activity, negative = inhibition": "inactive: 0.234%"}, {"smiles": "CC(C)CC(=O)N=C1SC2CS(=O)(=O)CC2N1Cc1ccccc1Cl", "note": "(configuration not stated)", "activity, negative = inhibition": "inactive: -6.59%"}, {"smiles": "Cn1c(N)c(C(=O)Nc2ccc(-c3ccccc3)cc2)sc1=S", "activity, negative = inhibition": "inactive: -4.06%"}, {"smiles": "CCn1c(NC(=O)C(C)C)c(-c2cccs2)c(=O)c2ccccc21", "activity, negative = inhibition": "inactive: -7.71%"}, {"smiles": "Cc1cc2nc(-c3ccccc3)cc(=O)n2[nH]1", "activity, negative = inhibition": "inactive: -8.72%"}, {"smiles": "Cc1ccc(S(=O)(=O)NNC(=O)c2cc(C)cs2)cc1", "activity, negative = inhibition": "inactive: -3.52%"}, {"smiles": "Fc1ccc(C2=Nn3c(nnc3-c3ccco3)SC2)cc1", "activity, negative = inhibition": "inactive: 4.79%"}, {"smiles": "CCc1nc2oc3ccccc3c(=O)c2c(=O)n1-c1ccc(C)cc1", "activity, negative = inhibition": "inactive: -12.1%"}, {"smiles": "CCOC(=O)Nc1ccc(C(=O)/C=C/c2ccccc2)cc1", "activity, negative = inhibition": "inactive: -17.5%"}, {"smiles": "CC(C)(C)OC(=O)N1CCCN(C(=O)Nc2ccc(C(F)(F)F)cc2)CC1", "activity, negative = inhibition": "inactive: 6.22%"}, {"smiles": "NC(=O)C1CCN(C(=O)Nc2csc3ccccc23)CC1", "activity, negative = inhibition": "inactive: 5.62%"}, {"smiles": "COc1ccc(/C(C#N)=C/c2ccccn2)cc1", "activity, negative = inhibition": "inactive: 9.94%"}, {"smiles": "COc1cccc(NC(=O)C2CC(=O)N/C(=N/NC(=O)c3ccc(C)cc3)S2)c1", "note": "(configuration not stated)", "activity, negative = inhibition": "inactive: -5.66%"}, {"smiles": "CCN1C(=O)[C@@H]2C(C(=O)c3cnccn3)=NN[C@@H]2C1=O", "activity, negative = inhibition": "inactive: -8.33%"}, {"smiles": "Cc1cccc(OCC(=O)N(Cc2ccc(N(C)C)cc2)C2CCS(=O)(=O)C2)c1", "note": "(configuration not stated)", "activity, negative = inhibition": "inactive: -10.5%"}, {"smiles": "CCCCC1CCCC12NC(=O)NC2=O", "note": "(configuration not stated)", "activity, negative = inhibition": "inactive: 7.79%"}, {"smiles": "Nc1ncccc1OCc1ccc(Cl)c(Cl)c1", "activity, negative = inhibition": "inactive: -2.93%"}, {"smiles": "Cn1nc2c3ccccc3n(Cc3ccc(F)cc3)c2nc1=S", "activity, negative = inhibition": "inactive: -2.57%"}, {"smiles": "COc1ccc(/C=N/OC(=O)c2ccc(Cl)cc2)c(Cl)c1OC", "activity, negative = inhibition": "inactive: -5.17%"}, {"smiles": "Fc1c(CSC(=S)N2CCOCC2)cccc1CSC(=S)N1CCOCC1", "activity, negative = inhibition": "inactive: -1.55%"}, {"smiles": "O=C1NCCc2c1[nH]c1ccccc21", "activity, negative = inhibition": "inactive: 4.02%"}, {"smiles": "CCOC(=O)c1ccc(N2CCCCC2)c(NS(=O)(=O)c2ccc(C)cc2)c1", "activity, negative = inhibition": "inactive: 11.4%"}, {"smiles": "COc1ccc(Oc2ccc(-c3ccn[nH]3)cc2)cc1", "activity, negative = inhibition": "inactive: -8.28%"}, {"smiles": "O=S(=O)(Nc1cccc(CCc2ccccn2)c1)c1ccc(Cl)cc1", "activity, negative = inhibition": "inactive: -2.91%"}, {"smiles": "CN(C)C=Nc1ccc(Cl)c(Cl)c1", "activity, negative = inhibition": "inactive: -3.02%"}, {"smiles": "O=C(N/N=C/c1ccc2c(c1)OCCO2)c1ccncc1", "activity, negative = inhibition": "inactive: -1.01%"}, {"smiles": "CCOC(=O)c1nnn2c1nc(N1CCCCC1)c1ccccc12", "activity, negative = inhibition": "inactive: 4.9%"}, {"smiles": "CCN(CC)CC(O)Cn1c(-c2cccc(Cl)c2)nc2cc(C)c(C)cc21", "note": "(configuration not stated)", "activity, negative = inhibition": "inactive: -10.2%"}, {"smiles": "C=CCOc1c(CCC)cc(CCC)cc1C(N)=O", "activity, negative = inhibition": "inactive: -2.85%"}, {"smiles": "COCCCN1CCN(C2Cc3ccccc3Sc3ccc(Cl)cc32)CC1", "note": "(configuration not stated)", "Potency": "active: 12.2 µM"}, {"smiles": "CCOC(=O)c1nn(-c2ccc([N+](=O)[O-])cc2)cc1O", "activity, negative = inhibition": "inactive: -0.376%"}, {"smiles": "COc1nc(C)ccc1-c1noc(-c2cccs2)n1", "activity, negative = inhibition": "inactive: 1.23%"}, {"smiles": "COc1cc(/C=N/NC(=O)c2cncc(Br)c2)cc([N+](=O)[O-])c1O", "Potency": "active: 2.82 µM"}, {"smiles": "C1=Cc2ccccc2Nc2ccccc21", "activity, negative = inhibition": "inactive: -20.2%"}, {"smiles": "N/C(Cc1nc2ccccc2s1)=N\\O", "activity, negative = inhibition": "inactive: -0.237%"}, {"smiles": "COc1cc(NC(=S)N(C)C)c(OC)cc1Cl", "activity, negative = inhibition": "inactive: 1.08%"}]}]}
